Whole data set: some 33,000 sequences, median “E-score (-0.5 to 0.5)” near -0.012, cut for the highest 2% near 0.27. This is one part of the list.
Each sequence was assayed against T1, Vhr1 (UniProt P40522) (assay: PBM E-score (8-mer binding enrichment) (E-score (-0.5 to 0.5)); higher = stronger / more preferred TF binding; most listed sequences are background and not binding sites). Conditions: protein concentration: 200 nM; construct: GST-full length.
T1 sequence: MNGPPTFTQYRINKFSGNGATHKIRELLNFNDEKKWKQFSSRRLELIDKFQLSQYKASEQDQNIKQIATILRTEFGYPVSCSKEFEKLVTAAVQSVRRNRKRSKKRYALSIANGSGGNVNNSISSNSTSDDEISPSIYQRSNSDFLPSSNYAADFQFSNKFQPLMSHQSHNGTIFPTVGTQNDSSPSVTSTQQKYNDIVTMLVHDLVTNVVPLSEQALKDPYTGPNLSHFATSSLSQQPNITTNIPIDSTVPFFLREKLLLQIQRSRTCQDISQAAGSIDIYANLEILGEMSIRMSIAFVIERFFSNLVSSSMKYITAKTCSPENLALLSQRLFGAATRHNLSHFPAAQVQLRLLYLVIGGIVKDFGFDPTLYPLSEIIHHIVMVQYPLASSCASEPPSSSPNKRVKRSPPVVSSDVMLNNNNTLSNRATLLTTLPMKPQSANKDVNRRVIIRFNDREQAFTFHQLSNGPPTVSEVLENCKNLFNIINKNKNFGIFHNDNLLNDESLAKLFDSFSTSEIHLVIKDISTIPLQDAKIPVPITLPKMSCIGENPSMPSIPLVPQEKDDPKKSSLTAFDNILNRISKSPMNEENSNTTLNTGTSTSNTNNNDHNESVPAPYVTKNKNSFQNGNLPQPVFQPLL
Outline: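 Using PURExpress in vitro transcription/translation, GST-tagged yeast transcription factors were made in full-length or DNA-binding-domain form. These were applied at about 100-200 nM to double-stranded universal all-10-mer Agilent arrays, and bound protein was detected with fluorescent anti-GST. Scans were normalised with masliner before the Universal PBM Analysis Suite assigned E-scores to ungapped eight-base words pooled with their reverse complements.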

Sequence | PBM E-score
ACTTCCTC | -0.0661
CAGCCCTG | -0.064
AAGACAAA | -0.172
CAGCGGAC | 0.023
TAAAGGTA | -0.141
CACTAAAG | -0.0741
CTTTGATC | -0.0357
ATACCTCA | 0.128
ATTACAAC | -0.0561
CCCACTTA | 0.0215
CGCAACAG | -0.142
CCAGATCG | -0.0784
ATTTTCAA | -0.264
ACATAGAA | 0.169
AGCTGCCA | 0.022
CAAACTAC | 0.147
GCTCCCAC | -0.108
CGTTCCGC | -0.0349
CAACTGTA | 0.0365
CCACTTCG | 0.0216
ATTGTTTC | 0.217
ATGTCAGG | 0.0208

Sequence | PBM E-score
CCCGAGGA | -0.105
CACCTAAC | 0.0146
CTGGTTTA | -0.0732
TCTCGACA | -0.122
AGTACACA | 0.284
GCTTTCGA | -0.197
CAGCTACC | 0.0251
CAATCCGG | 0.161
ATTGCTCA | 0.0307
ATTTGCTC | 0.0575
AGATTGTG | 0.0611
CGACGCAG | -0.14
TCCCGTAA | -0.213
AGAGAAAG | -0.215
AACAGCTG | 0.00078
AACTGCAC | -0.0766
GCTGAAGA | -0.0896
GCAAGTGC | -0.0921
AACCCTAA | -0.043
ATAGAAGG | -0.191
AGCCCCTG | -0.146
AGTGCCCG | -0.113

Sequence | PBM E-score
CTGCGCTC | -0.204
ACGCGTCT | -0.18
GACGTCAA | -0.0965
AGATTTTC | -0.112
CGTCAGAC | 0.0113
AACGGCGC | 0.00854
CGTCCGAA | -0.0573
GTCTTTTA | -0.186
CACGGCAG | -0.0119
AACGTAAA | -0.15
ATGATGTG | 0.224
ATAGGTCC | 0.0453
CTAGGAAC | -0.199
CTACAGCC | -0.18
AAAACTGC | -0.161
AACCGTTG | -0.016
CGTGGACA | -0.105
ACGGTCGA | -0.0368
CGCATGCG | 0.157
ACAGGGCC | -0.12
GCACGGGC | -0.168
ATCTTTTA | -0.0843

Sequence | PBM E-score
AAAGCCGT | -0.195
CTGAATGA | 0.143
CGAGACAC | -0.0138
GTTGTTTA | 0.0832
AGGCCAAC | -0.156
CTGAATCA | 0.402
GCATGGAC | 0.0779
CAGACCGG | 0.0933
GCGGCCGC | 0.101
ACGAAGTC | -0.00207
ACACTCAT | 0.227
CCCTAATC | 0.0393
CATGCCCA | -0.0996
ACGAAAGG | -0.195
ATAAACGA | 0.0705
CAACGACG | 0.0308
AGCGTGTG | 0.04
ACTCTAGA | 0.19
ATCTTGGA | 0.0371
GCTTTTAC | -0.0421
GTGAACGA | 0.00095
CACGAGAA | -0.00753

Sequence | PBM E-score
GCGGTTAA | 0.0419
GACCTAGC | -0.186
CTCGTGAA | 0.0314
CCATCGGA | 0.0656
ATTGATGC | 0.228
GCATAACA | -0.116
CGATCGAG | 0.172
AGAGGCCG | -0.212
ATATAAAA | 0.0686
CCGGCACA | 0.00638
ACGGTTTA | 0.0279
ACTTATCT | -0.0327
CTCCGGAA | -0.0904
GACTACGC | 0.175
ACTATCCG | 0.187
ATATTTGG | 0.0253
CGATGGAC | 0.0476
AATTCAAC | 0.0395
ATAACAAG | 0.142
AAAGGTAA | -0.217
CCTACAGG | -0.253
TCTTTCCA | -0.157

Source: the supplement of paper PMC3334620
